# Source: PMC10962199
# Where a chain is given by its changes, count along the chain named. Results are given in words; binding and its absence hold for the method and conditions named. Binding seen in cells or lysates may run through a third protein. Some results given as binding are weak or reduced against the parent protein; the word gives no strength. Where a sequence is shown, tags or fusion partners need not be part of it.
# T1: APC/C component Apc4 (Apc4-TAP) (S. pombe) (UniProt O42839)
# T1 sequence: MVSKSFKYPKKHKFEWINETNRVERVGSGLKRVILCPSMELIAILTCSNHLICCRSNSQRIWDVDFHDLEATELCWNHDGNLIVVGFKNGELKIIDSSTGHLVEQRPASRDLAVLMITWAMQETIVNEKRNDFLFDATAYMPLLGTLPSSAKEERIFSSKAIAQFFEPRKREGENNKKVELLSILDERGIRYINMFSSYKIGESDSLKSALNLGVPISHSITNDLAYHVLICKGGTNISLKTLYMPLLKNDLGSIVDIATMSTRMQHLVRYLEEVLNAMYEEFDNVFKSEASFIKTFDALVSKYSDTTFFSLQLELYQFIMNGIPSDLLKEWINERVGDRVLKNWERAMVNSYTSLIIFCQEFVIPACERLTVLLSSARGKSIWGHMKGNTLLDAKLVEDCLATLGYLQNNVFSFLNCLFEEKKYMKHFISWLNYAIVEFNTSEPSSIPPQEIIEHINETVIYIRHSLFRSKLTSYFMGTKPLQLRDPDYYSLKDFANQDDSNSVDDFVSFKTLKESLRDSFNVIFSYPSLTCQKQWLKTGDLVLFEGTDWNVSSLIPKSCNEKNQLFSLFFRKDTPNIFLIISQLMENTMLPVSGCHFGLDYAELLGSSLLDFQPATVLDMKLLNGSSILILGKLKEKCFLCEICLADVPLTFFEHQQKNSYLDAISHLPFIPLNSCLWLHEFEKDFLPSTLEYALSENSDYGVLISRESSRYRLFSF
# T2: Cdc20^Slp1 (Slp1-HA) (S. pombe) (UniProt P78972)
# T2 sequence: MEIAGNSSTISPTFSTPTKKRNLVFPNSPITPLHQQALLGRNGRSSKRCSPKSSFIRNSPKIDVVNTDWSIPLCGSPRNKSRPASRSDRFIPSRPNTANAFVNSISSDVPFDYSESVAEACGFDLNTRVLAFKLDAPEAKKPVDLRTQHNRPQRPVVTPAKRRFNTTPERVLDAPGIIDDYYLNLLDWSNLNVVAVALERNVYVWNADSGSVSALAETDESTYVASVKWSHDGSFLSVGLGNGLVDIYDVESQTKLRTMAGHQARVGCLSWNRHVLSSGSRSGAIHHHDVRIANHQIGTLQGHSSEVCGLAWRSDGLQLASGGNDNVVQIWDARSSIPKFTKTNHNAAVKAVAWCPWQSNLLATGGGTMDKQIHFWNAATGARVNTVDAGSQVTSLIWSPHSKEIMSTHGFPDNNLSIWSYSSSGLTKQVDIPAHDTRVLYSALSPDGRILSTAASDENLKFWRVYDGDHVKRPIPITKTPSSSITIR
# T3: Cdc20^Slp1-DS (Slp1-DS-HA), MAPK docking site mutant (S. pombe) (UniProt P78972)
# T3 sequence: T2 sequence with K19A, K20A, R21A, L23A, V24A
# T4: MAPK Pmk1 (Pmk1-GFP) (S. pombe) (UniProt Q92398)
# T4 sequence: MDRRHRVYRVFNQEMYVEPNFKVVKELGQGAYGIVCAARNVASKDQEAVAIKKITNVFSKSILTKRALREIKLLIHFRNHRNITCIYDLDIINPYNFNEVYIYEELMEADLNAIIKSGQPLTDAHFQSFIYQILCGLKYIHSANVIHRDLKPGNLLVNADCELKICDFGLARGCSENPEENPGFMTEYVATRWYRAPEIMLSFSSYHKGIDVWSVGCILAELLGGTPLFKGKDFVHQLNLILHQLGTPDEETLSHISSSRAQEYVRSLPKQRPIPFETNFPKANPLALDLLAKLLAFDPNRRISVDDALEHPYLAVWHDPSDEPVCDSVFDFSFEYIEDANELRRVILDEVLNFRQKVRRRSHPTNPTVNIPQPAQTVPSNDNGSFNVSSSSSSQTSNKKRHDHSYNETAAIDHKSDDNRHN
# B1: Mad3 (Mad3-GFP) (protein, UniProt O59767 1-310)
# chain: MEPLDAGKNWVHMDVIEQSKENIEPRKAGHSASALAKSSSRNHTEKEVAGLQKERMGHERKIETSESLDDPLQVWIDYIKWTLDNFPQGETKTSGLVTLLERCTREFVRNPLYKDDVRYLRIWMQYVNYIDEPVELFSFLAHHHIGQESSIFYEEYANYFESRGLFQKADEVYQKGKRMKAKPFLRFQQKYQQFTHRWLEFAPQSFSSNTNSVNPLQTTFESTNIQEISQSRTKISKPKFKFSVYSDADGSGKDGQPGTWQTLGTVDQRRKENNISATSWVGEKLPLKSPRKLDPLGKFQVHCDEEVSKE
# B2: Cdc20^Slp1 (Slp1-HA) (protein, UniProt P78972 1-488)
# chain: T2 sequence
# B3: MAPK Pmk1 (Pmk1-GFP) (enzyme, UniProt Q92398 1-422)
# chain: T4 sequence
# B4: Mad2 (protein, UniProt O14417 1-203)
# chain: MSSVPIRTNFSLKGSSKLVSEFFEYAVNSILFQRGIYPAEDFKVVRKYGLNMLVSVDEEVKTYIRKIVSQLHKWMFAKKIQKLILVITSKCSGEDLERWQFNVEMVDTADQFQNIGNKEDELRVQKEIQALIRQITATVTFLPQLEEQCTFNVLVYADKDSEVPTDWVDSDPRILRDAEQVQLRSFSTSMHKIDCQVAYRVNP
# B5: Cdc20^Slp1-DS (Slp1-DS-HA), MAPK docking site mutant (protein, UniProt P78972 1-488)
# chain: T2 sequence with K19A, K20A, R21A, L23A, V24A
# Assays:
# [1] = biological target: T1, APC/C component Apc4 (Apc4-TAP) (S. pombe); experiment: co-IP; Apc4-TAP immunoprecipitated from control and pmk1Δ cells, nda3-KM311 background after 6 h of mitotic arrest; immunoblot for Mad3-GFP
# [2] = biological target: T2, Cdc20^Slp1 (Slp1-HA) (S. pombe); experiment: co-IP; mitotically arrested nda3-KM311 cells (HU pre-synchronised, 6 h at 18 °C), native extracts; which partner was precipitated is not stated for these panels (Fig. 3A, 3C, 3F); untagged strains as negative controls
# [3] = biological target: T3, Cdc20^Slp1-DS (Slp1-DS-HA), MAPK docking site mutant (S. pombe); experiment: as above
# [4] = biological target: T2, Cdc20^Slp1 (Slp1-HA) (S. pombe); experiment: co-IP; Slp1-HA immunoprecipitated with anti-HA from native S. pombe extracts, partner detected by immunoblot; washes with 50 mM Tris-HCl pH 7.5, 500 mM NaCl, 0.1% Nonidet P-40; cells from a mitotic block (wild type, pmk1Δ or pek1Δ background) or asynchronous cells treated with 0.6 M KCl for 0, 5, 15 and 30 min
# [5] = biological target: T4, MAPK Pmk1 (Pmk1-GFP) (S. pombe); experiment: co-IP; mitotically arrested nda3-KM311 cells (HU pre-synchronised, 6 h at 18 °C), native extracts; which partner was precipitated is not stated for these panels (Fig. 3A, 3C, 3F); untagged strains as negative controls
Binder,binding [1],binding [2],binding [3],binding [4],binding [5]
B1,binds,binds,binds,binds,–
B2,–,–,–,–,binds
B3,–,–,–,binds,–
B4,–,binds,binds,–,–
B5,–,–,–,–,no binding
